According to PMC9774280:
Results are given in words; binding and its absence hold for the method and conditions named. In cells and extracts the contact can be indirect. Some binding calls cover weakened binding; strength is not graded here. For part of these data: Sequences can lack the tags named with a protein.

Chains of the proteins cited; added tags and fusions are not shown. Lines headed by an entry give the natural chain unless they say otherwise; changes in a name come on top. Residues count along the entry.
UniProt O00206: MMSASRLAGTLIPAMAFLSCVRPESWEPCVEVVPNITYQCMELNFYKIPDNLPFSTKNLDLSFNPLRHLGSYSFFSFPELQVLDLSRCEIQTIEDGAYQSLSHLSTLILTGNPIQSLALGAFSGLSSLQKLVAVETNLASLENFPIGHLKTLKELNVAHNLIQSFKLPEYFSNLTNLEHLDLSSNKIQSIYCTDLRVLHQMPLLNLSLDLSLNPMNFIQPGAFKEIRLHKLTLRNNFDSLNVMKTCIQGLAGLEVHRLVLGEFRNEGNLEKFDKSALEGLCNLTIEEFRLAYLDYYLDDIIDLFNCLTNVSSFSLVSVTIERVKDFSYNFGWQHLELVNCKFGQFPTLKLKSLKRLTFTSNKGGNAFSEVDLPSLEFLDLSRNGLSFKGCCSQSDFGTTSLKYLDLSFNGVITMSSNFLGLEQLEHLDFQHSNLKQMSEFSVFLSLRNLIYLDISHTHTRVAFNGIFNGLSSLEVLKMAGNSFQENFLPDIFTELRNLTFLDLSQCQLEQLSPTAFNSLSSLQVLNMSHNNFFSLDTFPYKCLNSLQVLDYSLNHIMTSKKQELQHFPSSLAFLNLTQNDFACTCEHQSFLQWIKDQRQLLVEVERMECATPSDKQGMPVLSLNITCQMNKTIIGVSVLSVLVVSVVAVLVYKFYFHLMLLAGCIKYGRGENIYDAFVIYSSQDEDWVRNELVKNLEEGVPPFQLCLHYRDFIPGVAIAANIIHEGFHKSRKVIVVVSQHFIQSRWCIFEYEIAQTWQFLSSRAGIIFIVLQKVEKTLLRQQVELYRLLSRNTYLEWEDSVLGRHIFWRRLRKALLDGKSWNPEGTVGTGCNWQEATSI
UniProt Q9QUK6, residues 26-835: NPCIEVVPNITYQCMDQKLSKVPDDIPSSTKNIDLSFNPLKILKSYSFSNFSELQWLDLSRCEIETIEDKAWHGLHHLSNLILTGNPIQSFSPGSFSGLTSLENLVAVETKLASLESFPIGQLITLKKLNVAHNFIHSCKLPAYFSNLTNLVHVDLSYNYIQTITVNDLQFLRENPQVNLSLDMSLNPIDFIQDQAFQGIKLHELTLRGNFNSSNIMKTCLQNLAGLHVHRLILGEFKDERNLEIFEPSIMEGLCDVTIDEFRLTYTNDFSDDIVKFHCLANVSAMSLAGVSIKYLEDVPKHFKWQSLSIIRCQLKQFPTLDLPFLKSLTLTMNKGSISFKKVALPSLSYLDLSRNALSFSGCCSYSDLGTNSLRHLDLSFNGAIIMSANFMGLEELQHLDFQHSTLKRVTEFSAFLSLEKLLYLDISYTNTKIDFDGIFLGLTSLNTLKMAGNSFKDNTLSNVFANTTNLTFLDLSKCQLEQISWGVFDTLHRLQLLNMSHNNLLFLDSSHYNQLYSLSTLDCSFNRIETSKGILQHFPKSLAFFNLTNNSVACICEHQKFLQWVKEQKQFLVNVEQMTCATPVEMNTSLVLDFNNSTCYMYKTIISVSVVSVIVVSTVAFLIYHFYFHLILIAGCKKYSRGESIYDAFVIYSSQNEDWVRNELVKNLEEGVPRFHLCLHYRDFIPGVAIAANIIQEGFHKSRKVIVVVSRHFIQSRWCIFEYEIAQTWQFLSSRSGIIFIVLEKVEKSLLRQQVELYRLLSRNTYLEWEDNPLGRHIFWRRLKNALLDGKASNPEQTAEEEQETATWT
UniProt Q8R4B8: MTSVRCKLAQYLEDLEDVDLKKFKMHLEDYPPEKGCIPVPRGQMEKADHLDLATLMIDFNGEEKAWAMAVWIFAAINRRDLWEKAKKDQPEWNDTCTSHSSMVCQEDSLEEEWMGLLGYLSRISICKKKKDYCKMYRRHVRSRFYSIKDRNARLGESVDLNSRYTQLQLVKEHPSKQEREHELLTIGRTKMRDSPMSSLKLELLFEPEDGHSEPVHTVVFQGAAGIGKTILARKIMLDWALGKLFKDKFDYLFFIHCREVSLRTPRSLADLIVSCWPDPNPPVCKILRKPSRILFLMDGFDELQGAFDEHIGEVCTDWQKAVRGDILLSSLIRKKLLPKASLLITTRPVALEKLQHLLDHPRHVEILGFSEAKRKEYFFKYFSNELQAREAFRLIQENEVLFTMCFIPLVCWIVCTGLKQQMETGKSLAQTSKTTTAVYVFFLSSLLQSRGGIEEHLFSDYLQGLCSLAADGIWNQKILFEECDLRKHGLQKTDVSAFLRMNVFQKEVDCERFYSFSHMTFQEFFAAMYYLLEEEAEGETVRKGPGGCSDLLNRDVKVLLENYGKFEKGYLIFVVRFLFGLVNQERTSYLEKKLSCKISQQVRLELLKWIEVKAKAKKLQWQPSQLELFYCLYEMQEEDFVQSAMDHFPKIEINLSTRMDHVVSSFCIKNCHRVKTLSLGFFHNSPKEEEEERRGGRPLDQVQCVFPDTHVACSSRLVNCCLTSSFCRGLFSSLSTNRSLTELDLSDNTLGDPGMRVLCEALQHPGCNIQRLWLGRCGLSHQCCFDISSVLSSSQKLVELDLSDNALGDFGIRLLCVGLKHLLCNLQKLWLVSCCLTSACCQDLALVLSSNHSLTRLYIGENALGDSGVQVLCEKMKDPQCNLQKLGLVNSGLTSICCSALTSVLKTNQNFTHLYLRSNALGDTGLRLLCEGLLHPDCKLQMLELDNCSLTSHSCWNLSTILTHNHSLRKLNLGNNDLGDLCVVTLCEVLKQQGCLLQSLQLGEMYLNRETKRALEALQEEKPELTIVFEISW

Columns and labels:
[1] = target: Myc-NAMPT (UniProt P43490); experiment: co-IP; 293T cells transfected with Flag-TLR4 or its mutants and Myc-NAMPT; IP with anti-Myc, IB with anti-Flag
[2] = target: T1, GST-NAMPT (10-116), N-terminus of NAMPT (UniProt P43490); experiment: pull-down; 293T cells co-transfected with the GST fusion and the tagged partner; NP-40 lysate, glutathione-Sepharose, 4 °C, 4 h; IB with anti-Flag, anti-V5 or anti-Myc
T1 sequence: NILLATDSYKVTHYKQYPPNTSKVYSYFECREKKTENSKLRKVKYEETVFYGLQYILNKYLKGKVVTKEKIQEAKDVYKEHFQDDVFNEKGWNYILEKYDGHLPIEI

[3] = target: T2, GST-CYBB (UniProt P04839); experiment: as above
T2 sequence: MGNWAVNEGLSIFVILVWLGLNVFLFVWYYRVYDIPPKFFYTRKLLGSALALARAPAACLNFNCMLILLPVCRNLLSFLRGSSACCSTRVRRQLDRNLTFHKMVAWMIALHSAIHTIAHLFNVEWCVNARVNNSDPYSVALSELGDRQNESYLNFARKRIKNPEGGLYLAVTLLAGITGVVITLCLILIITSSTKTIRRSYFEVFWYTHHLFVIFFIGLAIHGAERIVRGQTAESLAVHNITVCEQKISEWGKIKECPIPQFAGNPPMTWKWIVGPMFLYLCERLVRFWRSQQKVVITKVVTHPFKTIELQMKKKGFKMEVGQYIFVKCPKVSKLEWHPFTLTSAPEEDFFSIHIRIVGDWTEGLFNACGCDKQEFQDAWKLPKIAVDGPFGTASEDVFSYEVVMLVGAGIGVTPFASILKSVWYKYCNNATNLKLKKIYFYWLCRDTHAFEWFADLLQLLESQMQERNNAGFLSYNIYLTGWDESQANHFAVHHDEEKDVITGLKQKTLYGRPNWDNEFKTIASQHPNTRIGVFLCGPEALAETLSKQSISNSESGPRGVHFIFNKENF

[4] = target: Nicotinamide phosphoribosyl transferase (NAMPT), endogenous, extracellular (e) NAMPT of macrophages (mouse (endogenous in BMDMs and colon)) (UniProt Q99KQ4); experiment: co-IP; BMDMs primed with LPS (100 ng/mL) and stimulated with ATP (1 mM); NP-40 lysate; IP with anti-NAMPT, IB with anti-TLR4, anti-CYBB, anti-CYBA, anti-ASC or anti-NLRP3
[5] = target: recombinant NAMPT protein (UniProt P43490); experiment: co-IP; BMDMs incubated with rNAMPT (1 μg/mL) for 2 h; IP with anti-His, IB with anti-TLR4, anti-CYBB, anti-CYBA, anti-ASC or anti-NLRP3; only the target purified
[6] = target: Flag-TLR4 (UniProt O00206); experiment: co-IP; competition: TAT-NAMPT peptides (5 µM; 1, 5, 10 µM, 6 h) added to 293T cells expressing Myc-NAMPT and Flag-TLR4 or V5-CYBB; loss of the co-precipitate read out; peptide against the tagged receptor; only the binder purified
[7] = target: T3, V5-CYBB (UniProt P04839); experiment: as above
T3 sequence: T2 sequence

[8] = target: T4, CYBB, endogenous (mouse (endogenous in BMDMs and colon)) (UniProt Q61093); experiment: co-IP; competition: TAT-NAMPT peptides on BMDMs incubated with rNAMPT; loss of the anti-His co-precipitate of TLR4 or CYBB read out; peptide against the endogenous receptor; only the binder purified
T4 sequence: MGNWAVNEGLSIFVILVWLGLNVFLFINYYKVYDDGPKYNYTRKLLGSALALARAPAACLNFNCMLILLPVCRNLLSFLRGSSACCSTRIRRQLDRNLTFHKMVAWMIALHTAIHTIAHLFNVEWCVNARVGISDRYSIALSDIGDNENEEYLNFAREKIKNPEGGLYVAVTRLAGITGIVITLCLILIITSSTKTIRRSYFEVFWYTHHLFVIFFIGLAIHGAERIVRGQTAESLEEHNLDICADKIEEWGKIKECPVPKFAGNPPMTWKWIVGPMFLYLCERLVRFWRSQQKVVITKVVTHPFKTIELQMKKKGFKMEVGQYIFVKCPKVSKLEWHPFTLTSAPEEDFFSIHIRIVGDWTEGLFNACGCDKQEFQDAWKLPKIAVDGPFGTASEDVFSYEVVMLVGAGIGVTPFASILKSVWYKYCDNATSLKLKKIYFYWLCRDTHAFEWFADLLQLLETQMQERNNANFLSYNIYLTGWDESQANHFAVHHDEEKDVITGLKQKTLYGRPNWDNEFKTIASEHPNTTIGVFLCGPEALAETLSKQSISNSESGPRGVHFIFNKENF

[9] = target: TLR4, endogenous (mouse (endogenous in BMDMs and colon)) (UniProt Q9QUK6); experiment: as above
[10] = target: Nicotinamide phosphoribosyl transferase (NAMPT), endogenous, extracellular (e) NAMPT of macrophages (mouse (endogenous in BMDMs and colon)) (UniProt Q99KQ4); experiment: condition: only in Lenti-shITG-transduced (ITGA6/ITGB1 knock-down) mice; co-IP; colon of DSS-treated Lenti-shITG-transduced (ITGA6 and ITGB1 knock-down) mice; IP with anti-His or anti-NAMPT, IB with anti-TLR4, anti-CYBB or anti-CYBA
[11] = target: Nicotinamide phosphoribosyl transferase (NAMPT), endogenous, extracellular (e) NAMPT of macrophages (mouse (endogenous in BMDMs and colon)) (UniProt Q99KQ4); experiment: co-IP; colon of DSS-treated Lenti-shNS-transduced mice (rVehicle, rCT or rCT-NAMPT given); IP with anti-His or anti-NAMPT, IB with anti-TLR4, anti-CYBB or anti-CYBA

With “Flag-TLR4 (25-696), extracellular leucine-rich region (LRR domain) (from UniProt O00206 25-696) (domain or fragment)” the binding [1] was “binds”.

In the case of “Flag-TLR4 (from UniProt O00206 24-811) (receptor)”, the binding [2] is reported as “binds”.

For Myc-NAMPT (from UniProt P43490 1-491), the binding [3] was “binds”.

In the case of “NLRP3, endogenous (from UniProt Q8R4B8 1-1033)”, the binding [4] is reported as “no binding” and the binding [5] is reported as “no binding (tested: 1 μg/mL rNAMPT)”.

With “TAT–NAMPT (aa 40–69) peptide (from UniProt P43490 40-69)” the binding [6] was “binds” and the binding [7] was “binds”.

In the case of “TAT–NAMPT (aa 52–56) peptide (from UniProt P43490 52-56)”, the binding [8] is reported as “binds” and the binding [7] is reported as “binds”.

“TAT–NAMPT (aa 57–65) peptide (from UniProt P43490 57-65)” was tested, and the binding [9] was “binds” and the binding [6] was “binds”.

In the case of “TLR4, endogenous (from UniProt Q9QUK6 26-835) (receptor)”, the binding [10] is reported as “no binding”, the binding [4] is reported as “binds” and the binding [5] is reported as “binds”. The binding [11] was “binds”.
